A word on the inhibition: it is the drop in the measured response relative to a control, in per cent.

Out of some 340,000 compounds screened, about 6,900 (2%) were called active. Cut-off read from the data, not from the text of the source: active = inhibition above about 30%; inactive = below that, where a call was filed. The entries are a selection whose mix differs from that of the whole data set. The source gives no active or inactive call for entries shown without one.

Sequence of UniProt P14416 (P14416 whole entry, looked up): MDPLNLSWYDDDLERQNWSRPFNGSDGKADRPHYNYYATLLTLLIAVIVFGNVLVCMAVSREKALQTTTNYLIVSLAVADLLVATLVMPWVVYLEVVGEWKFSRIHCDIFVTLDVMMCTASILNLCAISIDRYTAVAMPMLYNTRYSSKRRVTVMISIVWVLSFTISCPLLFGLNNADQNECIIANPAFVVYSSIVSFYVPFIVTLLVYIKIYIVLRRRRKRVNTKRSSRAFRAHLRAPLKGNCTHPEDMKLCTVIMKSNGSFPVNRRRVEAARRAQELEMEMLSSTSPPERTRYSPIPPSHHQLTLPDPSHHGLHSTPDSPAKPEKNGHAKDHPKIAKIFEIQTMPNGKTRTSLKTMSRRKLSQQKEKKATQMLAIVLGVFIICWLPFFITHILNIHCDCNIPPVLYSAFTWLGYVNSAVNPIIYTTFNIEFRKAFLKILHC

This test concerns the target D(2) dopamine receptor (Homo sapiens) (UniProt P14416). The test is described as follows: HTS Assay for Allosteric Antagonists of the Human D2 Dopamine Receptor: Primary Screen for Antagonists. Note: 0% is about no effect. The conditions noted are these: HEK293 TREx D2 cells, calcium flux, dopamine EC80; at 10 µM; stronger effect = higher value. Put shortly:
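Compounds are added to dye-loaded, induced HEK293 T-REx cells coupled to calcium release via D2; after a 3 min kinetic read an EC80 dopamine stimulus is given and fluorescence is recorded for 3 more min.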
(Calcium flux is commonly read through the fluorescence of an indicator in the cells.)
For `Cc1cccc(OCCN2CCOCC2)c1C`, the inhibition was active: 41.1%.
Turning to `COc1ccc2c(c1)c(CC(=O)Nc1cccc(F)c1C)c(C)n2C(=O)c1ccc(Cl)cc1`, the inhibition is 18%.
As for `S=C(NCCc1ccccc1)Nc1ccccc1N1CCOCC1`, the figure is active: 44.7%; as for `COc1cccc(-n2ccn(CC(=O)Nc3ccccc3F)c(=O)c2=O)c1`, 2.51%.
Consider `O=C(O)c1cccc(CN2C(=O)S/C(=C/c3cccc([N+](=O)[O-])c3)C2=O)c1`, for which the inhibition was active: 33.6%.
In the case of `Cc1cc(C)c2c(=O)cc(C(=O)Nc3sc4c(c3C#N)CCCC4)oc2c1`, the inhibition is -6.7%.
As for `O=C(NCc1ccc(F)cc1)c1ccc2c(c1)N(Cc1c(F)cccc1Cl)C(=O)CS2`, the figure is 2.1%; as for `CC1=C(c2ccc(C)cc2)S(=O)(=O)N(Cc2ccc(C(=O)NCc3ccccc3)cc2)C1=O`, 3.48%; as for `Cc1ccccc1NC(=O)CN1C(=O)C2(SCC(=O)N2c2ccc(F)cc2)c2ccccc21` (centres undefined), -3.38%.
Regarding `O=C(Nc1cc(C(F)(F)F)ccc1Cl)c1noc2c1CCCCC2`, the inhibition turned out to be 2.86%.
In the case of `Cc1oc(C(C)(C)C)cc1C(=O)NC1CCN(Cc2ccccc2)CC1`, the inhibition is active: 85.3%.
As for `COCCCNC(=O)CSc1nc2cc3c(cc2c(=O)n1CCCCCC(=O)NCCc1ccc(OC)c(OC)c1)OCO3`, the inhibition was -22.1%.
As for `CCc1nn2c(=O)cc(COC(=O)c3cccc(NC(=O)c4ccccc4C)c3)nc2s1`, the figure is 12.3%; as for `Cc1ccc(C(C(=O)NC2CCCC2)N(C(=O)Cc2cccs2)c2ccc3c(c2)OCCO3)cc1` (centres undefined), active: 48.1%.
For `COc1ccccc1CNCC(=O)NCc1ccc(C)cc1`, the inhibition is active: 52.4%.
To `CCc1nc2c(cnn2-c2ccc(C)cc2)c(=O)n1-c1ccc(C)cc1` belongs -3.58%; to `Cc1ccc(-c2noc(C(C)NC(=O)c3ccco3)n2)cc1` (centres undefined), -10.2%.
To `COc1ccc(S(=O)(=O)c2c(SC)nn(CC(=O)Nc3ccc(C)c(Cl)c3)c2N)cc1` belongs 12.1%; to `CC1=CCC(C(=O)O)C(C(=O)NC2CCCCC2)C1` (centres undefined), active: 44.6%.
To `COCc1nnc(NC(=O)C2CC(=O)N(CCc3ccc(F)cc3)C2)s1` (centres undefined) belongs active: 30.1%; to `O=C(CCN1CCN(c2ccccc2F)CC1)Nc1ccc2c(c1)OCO2`, active: 86.4%.
Take `COC(=O)c1[nH]c2cc(C)ccc2c1NC(=O)CN1CCN(c2ccccc2OC)CC1`: the inhibition is active: 69.9%.
As for `N#Cc1ccccc1OCCCN1CCC(Cc2ccccc2)CC1`, the figure is active: 84.5%; as for `Cc1ccc(C(=O)Nc2nnc(S(=O)(=O)N(C)Cc3ccco3)s2)cc1`, -3.36%.
With `CCn1cc(C(=O)NCCc2ccc(OC)c(OC)c2)c(=O)c2cc(S(=O)(=O)N3CCOCC3)ccc21`, the inhibition turned out to be 2.34%.
As for `CC1CCN(S(=O)(=O)c2ccc3c(ccn3CC(=O)NCc3ccccc3F)c2)CC1`, the figure is -3.93%; as for `COc1cccc(CNC(=O)c2ccc3c(c2)nc2n3CCOC2)c1OC`, -18.7%; as for `Cc1ccc(C)c(NC(=O)CN2CCN(C3CCCCC3)C(=O)C2=O)c1`, -18.8%.
Regarding `Cc1cccc(-n2nnc(-c3nc(-c4ccccc4)no3)c2N)c1C`, the inhibition amounted to 6.89%.
As to `CC12CCC(C(=O)N(CSC(=S)N/N=C\c3ccccc3)C1=O)C2(C)C` (centres undefined), the inhibition is active: 32.4%.
To `COC(=O)c1ccc(C2c3c(oc4ccc(C)cc4c3=O)C(=O)N2Cc2ccc3c(c2)OCO3)cc1` (centres undefined) belongs 15.3%; to `Cc1ccc(NC(=O)C[n+]2cc(-c3ccccc3)n3c2CCC3)c(C)c1`, active: 65.4%.
Take `COc1cccc(CNC(=O)Cn2ccc3cc(S(=O)(=O)N4CCCC4)ccc32)c1OC`: the inhibition was 13%.
As for `Cc1ccc(S(=O)(=O)c2nnn3c2nc(NCc2ccc4c(c2)OCO4)c2sccc23)cc1`, the figure is 2.66%.
Consider `COc1ccccc1C(=O)Nc1cccc(C(=O)OCc2cc(=O)n3nc(C4CC4)sc3n2)c1`, for which the inhibition turned out to be 2.38%.
With `O=C(Nc1ccc(OC(F)(F)F)cc1)C(Cc1ccccc1)NS(=O)(=O)c1cccc2nsnc12` (centres undefined), the inhibition was -5.35%.
For `CC1CCCN(CCCNC(=O)c2ccc3c(c2)N(Cc2cccc(Cl)c2)C(=O)c2ccccc2S3(=O)=O)C1` (centres undefined), the inhibition turned out to be 3.32%.
As for `Cc1ccc(C)c(CNC(=O)c2ccc3c(c2)nc2n3CCOC2)c1`, the figure is -8.59%; as for `CC(C)Cc1nn2c(=O)cc(COC(=O)CNC(=O)c3ccc(C(C)(C)C)cc3)nc2s1`, 12.2%.
To `CCCCn1c(=NC(=O)C(C)(C)Oc2ccc(Cl)cc2)c(C(=O)OCC)cc2c(=O)n3ccccc3nc21` belongs 2.86%; to `COc1cccc(N2CCN(C(=O)c3cc4c(s3)-c3c(C)cccc3OC4)CC2)c1`, 9.42%.
Take `COc1ccc(-c2nc(CN3CCN(C(=O)c4ccco4)CC3)c(C)o2)c(OC)c1C`: the inhibition was active: 92.2%.
As for `Cc1ccc(NC(=O)CN2C(=O)COc3ccc(S(=O)(=O)N4CCCCCC4)cc32)cc1Cl`, the figure is 7.32%.
To `O=C(Cc1ccccc1)Nc1c(C(=O)c2ccccc2)oc2ccccc12` belongs -1.54%.
As for `COc1ccc(CNC(=O)c2cc3cc4ccc(C)cc4nc3o2)cc1`, the figure is -1.96%; as for `CCc1ccc(C(=O)COC(=O)C(Cc2c[nH]c3ccccc23)NC(=O)c2ccc(CC)cc2)cc1` (centres undefined), 6.11%; as for `Cc1ccc(NC(=O)CSc2nnc(-c3nnn(-c4ccc(F)cc4)c3C)o2)cc1Br`, 3.94%.
On to `Cc1nc(-c2cccc(F)c2)sc1CCNC(=O)c1c(F)cccc1Cl`, for which the inhibition was found to be 6.18%.
As for `CC(=O)NC1CC2CCCC(C1)N2Cc1ccc(C)cc1` (centres undefined), the figure is active: 53.8%; as for `Cc1ccc(NS(=O)(=O)c2ccc(-c3cnc(C4CC4)o3)cc2)cc1N(C)C`, -20.5%.
In the case of `CC(C)Oc1ccc(C(=O)N2CCC(c3nc4ccccc4o3)CC2)cc1`, the inhibition came to 13%.
On to `COc1ccc(-c2cc(C(=O)Oc3ccc(C)cc3)c3ccccc3n2)cc1`, for which the inhibition is -5.4%.
As for `COc1cc(NC(=O)CSc2ncc3c(n2)-c2ccc(Cl)cc2N(Cc2ccccc2)S3(=O)=O)cc(OC)c1`, the figure is 1.56%; as for `CC(=O)Nc1ccc(NC(=O)CSc2nccn2Cc2ccc3c(c2)OCO3)cc1`, 1.03%.
As for `O=C(Cn1ncc2c3ccccc3n(Cc3ccc(Cl)cc3)c2c1=O)NCCC1=CCCCC1`, the figure is -6.52%.
To `O=C1CSC2(C(=O)N(Cc3ccccc3F)c3ccccc32)N1c1cccc(C(F)(F)F)c1` (centres undefined) belongs -4.13%; to `CN(C)CCNC(=O)C1CCN(c2ncnc3c2nc2n3CCCCC2)CC1`, 13.6%.
With `CCOc1ccccc1CNC(=O)CCc1c(C)nn(-c2ccc(N3CCCCC3)nn2)c1C`, the inhibition is -6.05%.
`CC(NC(=O)C1CCN(S(=O)(=O)c2ccc(F)cc2)CC1)c1ccccc1` (centres undefined): the inhibition was -5.83%.
With `CN1CCC(=C2c3ccccc3CCc3sccc32)CC1`, the inhibition was active: 86.2%.
For the compound `Cn1c(CS(=O)Cc2c(Cl)cccc2Cl)nnc1SCc1ccc(Cl)cc1` (centres undefined), the inhibition was active: 31%.
On to `COc1cccc(C(=O)Nc2nc3ccc(S(=O)(=O)N4CCCC4)cc3s2)c1`, for which the inhibition was 5.11%.
As for `COc1ccc(Nc2ncc3c(n2)CC(c2ccc(C)cc2)CC3=O)cc1` (centres undefined), the inhibition was active: 36.4%.
To `O=C(Nc1ccc(Br)cc1)c1cc(-c2cccs2)nc2ccccc12` belongs -21.7%; to `CC1CCC(N2CC(=O)N(C3CCCCC3)C(c3ccc(Cl)cc3)C2=O)CC1` (centres undefined), -26.4%.
For `Cc1ccc2oc(C(=O)N(Cc3ccc(N(C)C)cc3)CC3CCCO3)c(C)c2c1` (centres undefined), the inhibition stood at 11.9%.
Regarding `CCOC(=O)c1c(NC(=O)CSc2cn(CCNC(=O)c3cccc(C(F)(F)F)c3)c3ccccc23)sc2c1CCC2`, the inhibition was 3.64%.
As for `CCOc1ccc(NC(=O)c2sc3nc4c(c(-c5ccccc5)c3c2N)C(=O)CC(C)(C)C4)cc1`, the inhibition was -3.39%.
Turning to `CCOc1cc(C2C(C(=O)OC)=C(C)NC3=C2C(=O)c2ccccc23)ccc1OC` (centres undefined), the inhibition was -24.1%.
In the case of `Cc1ccc(S(=O)(=O)c2cnc(SCC(=O)Nc3ccc4c(c3)OCCO4)[nH]c2=O)cc1Cl`, the inhibition was -20.2%.
To `Cc1ccccc1NC(=O)c1cn(-c2ccccc2)nc1-c1ccccc1` belongs -12%; to `Cc1ccccc1-c1ccnc2[nH]n(-c3ccccc3)c(=O)c12`, -16.4%.
As for `COc1cccc(CNc2ncnc3onc(C)c23)c1`, the figure is -2.77%; as for `O=C(Cn1c(=O)n(Cc2ccco2)c(=O)c2oc3ccccc3c21)Nc1ccc(F)c(Cl)c1`, -11.5%.
To `COc1ccc(N(CC(=O)N2CCc3ccccc3C2)S(=O)(=O)c2ccc(C)cc2)cc1Cl` belongs 18.5%; to `CN1CCN(CCCNC(=O)c2cnn(-c3ccc(F)cc3)c2-n2cccc2)CC1`, -7.7%; to `c1ccc(-c2cc3ncc4c(n3n2)-c2ccccc2OC4)cc1`, 13.7%.
Regarding `CNc1ccc(-c2nc(-c3ccccc3C)no2)cc1[N+](=O)[O-]`, the inhibition stood at 1.91%.
Take `O=C(Nc1c(C(=O)N2CCN(c3ccccc3F)CC2)oc2ccccc12)c1ccco1`: the inhibition was -2.28%.
Regarding `CSc1nc(-c2ccccc2Cl)nc2c1Cc1c(CO)cnc(C)c1O2`, the inhibition worked out at 3.94%.
As for `COc1ccc(CNC(=O)Cn2c(=O)c3cccn3c3ccccc32)cc1`, the figure is 21%.
In the case of `COc1ccccc1C(CNC(=O)c1ccco1)N1CCCC1` (centres undefined), the inhibition is active: 37.3%.
As for `CCc1nnc2c(N3CCN(c4cccc(C(F)(F)F)c4)CC3)nc3ccccc3n12`, the figure is 11.9%.
As to `CCCCC1=CC2=CC(=O)C(C)(OC(=O)CC)C(=O)C2=CN1Cc1ccc(OC)cc1` (centres undefined), the inhibition was active: 30.9%.
To `N#CC1=C2SCN(C3CCCCC3)CN2C(=O)CC1c1ccc(Br)cc1` (centres undefined) belongs -12.1%.
To `CCOc1cc(C#N)c(NC(=O)c2ccc(OC)c(S(=O)(=O)N3CCN(c4ccccc4)CC3)c2)cc1OCC` belongs 13.9%; to `CCCOc1ccc(CNC(=O)c2oc3ccc4c(c3c2C)C(=O)CC(C)(CC)O4)cc1` (centres undefined), 6.92%; to `CCOC(=O)c1ccc(NC(=O)c2cn(-c3ccccc3)nc2-c2ccc(C)cc2)cc1`, -1.64%.
To `CCCc1ccc(S(=O)(=O)N2CCC(c3nnnn3-c3ccc(OC)cc3)CC2)cc1` belongs -1.83%; to `CN(C)CCNC(=O)c1cccc(NS(=O)(=O)c2ccc(Cl)c(Cl)c2)c1`, active: 34.8%.
In the case of `Cc1oc2cc3oc(=O)c(CC(=O)N4CCCCC4)c(C)c3cc2c1C`, the inhibition came out at 7.75%.
As to `CC1=C(C(=O)Nc2ccccc2)C(c2ccc(C)cc2)n2nc(SCc3ccccc3C)nc2N1` (centres undefined), the inhibition is -13.4%.
In the case of `CC(C)OC(=O)CSc1nnc2c3ccccc3n(C)c2n1`, the inhibition was active: 37.2%.
As for `CCCOc1ccc(C(=O)Nc2nonc2-c2ccc(OCC)cc2)cc1`, the figure is -4.11%.

For the origin of these results see PubChem BioAssay AID485344 (National Center for Advancing Translational Sciences (NCATS), 2010).
